# Whole data set: some 33,000 sequences, median “E-score (-0.5 to 0.5)” near -0.012, cut for the highest 2% near 0.29. Some of the results follow.
# Target: T1, Ybr033w (UniProt P38073)
# T1 sequence: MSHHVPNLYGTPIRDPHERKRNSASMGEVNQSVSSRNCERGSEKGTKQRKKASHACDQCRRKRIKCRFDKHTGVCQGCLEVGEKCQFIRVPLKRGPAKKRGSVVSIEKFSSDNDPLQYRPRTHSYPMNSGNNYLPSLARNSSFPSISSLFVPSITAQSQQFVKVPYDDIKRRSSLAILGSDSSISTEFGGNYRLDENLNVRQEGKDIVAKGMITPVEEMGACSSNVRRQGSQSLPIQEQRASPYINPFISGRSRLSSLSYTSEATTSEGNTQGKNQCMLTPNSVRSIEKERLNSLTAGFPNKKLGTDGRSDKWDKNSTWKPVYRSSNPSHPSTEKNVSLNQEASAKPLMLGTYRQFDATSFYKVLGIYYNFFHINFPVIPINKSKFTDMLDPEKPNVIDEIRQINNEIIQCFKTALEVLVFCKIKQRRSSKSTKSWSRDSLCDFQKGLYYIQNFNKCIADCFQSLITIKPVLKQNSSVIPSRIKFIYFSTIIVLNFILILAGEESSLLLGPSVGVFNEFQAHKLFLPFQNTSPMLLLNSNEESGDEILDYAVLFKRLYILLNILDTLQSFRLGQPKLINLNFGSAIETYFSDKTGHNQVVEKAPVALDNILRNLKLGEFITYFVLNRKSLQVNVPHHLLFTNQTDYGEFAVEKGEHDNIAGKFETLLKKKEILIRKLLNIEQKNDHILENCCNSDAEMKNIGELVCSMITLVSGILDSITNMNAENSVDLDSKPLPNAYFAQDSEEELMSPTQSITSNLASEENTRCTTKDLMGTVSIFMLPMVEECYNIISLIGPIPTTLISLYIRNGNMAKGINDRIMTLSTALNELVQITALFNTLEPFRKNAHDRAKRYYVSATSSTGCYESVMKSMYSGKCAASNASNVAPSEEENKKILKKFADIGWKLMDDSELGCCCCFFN
# Assay: PBM E-score (8-mer binding enrichment) (E-score (-0.5 to 0.5)); higher = stronger / more preferred TF binding; most listed sequences are background and not binding sites
# Details: protein concentration: 200 nM; construct: GST-full length
# Outline: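 Bound GST-tagged yeast transcription factors, applied at about 100-200 nM to double-stranded universal all-10-mer Agilent arrays, were detected with fluorescent anti-GST. Scans were normalised with masliner. A modified Wilcoxon-Mann-Whitney statistic, the E-score, was assigned to each ungapped eight-base word pooled with its reverse complement by the Universal PBM Analysis Suite.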
row,Sequence,PBM E-score
1,AAGGGCCC,-0.291
2,ATCACGCG,0.0849
3,ATACTAGG,0.0434
4,AAAAGGTG,0.0842
5,AACAAAAA,0.212
6,AGGTTAGG,0.00933
7,ACCCAGGT,-0.365
8,CGCAACTC,0.091
9,GCGAGTCA,-0.0811
10,TAGCACCA,0.124
11,CTTGCGAA,0.212
12,ACTCGTTC,-0.003
13,ATCGTCGG,-0.176
14,ACTGCGTC,-0.0948
15,GAACGCAA,-0.0674
16,ACGGAAAT,0.313
17,CTAATAAC,0.216
18,AGTATAGG,-0.0308
19,CATGCAAC,0.0412
20,AAAAGACC,-0.141
21,CCAGCGAC,-0.116
22,ATGCCGCC,-0.209
23,CTTGCATC,-0.144
24,AGCGACTA,0.0503
25,CTCGCGCC,-0.145

row,Sequence,PBM E-score
1,ACATCCTA,0.0983
2,CAAGGCTA,0.0421
3,ACTCTTTA,-0.0522
4,GTGCGTGA,0.102
5,AATGCGTA,0.142
6,CTAGTGTC,0.0353
7,AATTAATT,0.214
8,GTTCTCGA,-0.00386
9,AGGACGTG,-0.195
10,AGGCCCCC,-0.394
11,AATCCCCG,0.00375
12,ATCCGGGC,-0.00836
13,TAAGTCGA,0.0883
14,GTTCGATA,0.106
15,AGAGAGTG,0.0856
16,ACCTTGGA,-0.0302
17,AAAGGTCC,-0.128
18,ACGTGAGA,-0.103
19,GCTTTTTA,0.142
20,ACTTATGA,0.171
21,CTGGATAA,0.316
22,AGTAAGGC,-0.00682
23,CCGGAAGA,0.404
24,GAGTTGGC,0.00816
25,CCCCAATA,-0.0487

row,Sequence,PBM E-score
1,AACCGACG,-0.0367
2,AAACCATC,0.206
3,AGTTCTAA,0.137
4,AGTGACTC,-0.0523
5,ACCACGCA,-0.0922
6,CATACGCC,-0.00989
7,ACGACGCG,0.0415
8,ACGTACAG,-0.2
9,GCAGCAGC,-0.206
10,AGGAGATG,-0.137
11,TAGACTAA,0.0338
12,GCACATCA,0.0666
13,CACTGTGG,-0.118
14,GGGCCAAA,-0.0948
15,CGTTGATA,0.076
16,ATTCAATC,0.187
17,GTTCCAGA,0.187
18,ACGTTACC,-0.221
19,TGGGTTAA,0.0191
20,CCAGGGAA,-0.267
21,GTGTCACA,0.0387
22,CGATGGGA,-0.0352
23,ACACCTGG,-0.242
24,GAAGGTCC,-0.242
25,ATGGTTCG,0.0191

row,Sequence,PBM E-score
1,GGTCAATA,-0.0226
2,TCTCACCA,0.133
3,GCGGATCA,0.255
4,CATATGCC,0.0243
5,ATTTGCCA,-0.068
6,AGATAACT,0.103
7,ACCGCAAT,0.165
8,CATCTTGC,-0.00719
9,CCACAGCA,-0.0457
10,CAAAAATC,0.236
11,ATGCTAAA,0.0741
12,AGCGTAAA,0.17
13,AACACGCG,0.137
14,AAAATTTG,0.263
15,GGTGCGTA,-0.16
16,ATGGTGTA,0.108
17,AGCGCTCC,-0.181
18,GGAGCACA,-0.0835
19,CTGAGAGA,-0.152
20,ATCAGTGC,-0.0292
21,GTAACCGA,-0.0166
22,ATGAAGTG,0.0211
23,ACCTCCAG,-0.198
24,ACGGGTAG,-0.195
25,CGACAGGC,-0.21

row,Sequence,PBM E-score
1,CAGGAACG,-0.0646
2,ATGTACGA,0.136
3,AAGCTATC,0.168
4,AAAAGCGT,0.0775
5,GCCATGAC,-0.131
6,GTAATTCA,0.211
7,AACTGTAC,-0.082
8,GTGAATCA,0.042
9,CTGATGTA,0.0171
10,TCAATGCA,-0.0957
11,AGCGAATA,0.0291
12,AGACGTCT,-0.272
13,AAATGTGT,0.179
14,ACCTTGAG,-0.00395
15,CAGAATGG,0.0185
16,ACCAGGGT,-0.0923
17,GAACAGTA,0.118
18,GGGTAAAC,0.113
19,GTTATACA,0.071
20,CCGGCCCC,-0.325
21,GGTACCGA,-0.414
22,ATTGTACC,0.0876
23,CTCACGGC,-0.261
24,CACAGCTG,-0.159
25,TACGCCGA,-0.162

row,Sequence,PBM E-score
1,GGCACTTA,-0.293
2,AAATAGGG,-0.0125
3,AGTCTTAG,-0.163
4,CAGTTAGG,0.031
5,CTCGGTGC,-0.157
6,GAAAAACC,0.386
7,AAATTTAC,0.263
8,CGCACTGC,-0.129
9,CGTTTAAG,0.0639
10,AAGCGGGG,-0.264
11,ACGCAGGG,-0.091
12,AACCATCG,0.149
13,AGCTCAGC,-0.133
14,GTGATAAC,-0.00385
15,ACAAATCA,0.176
16,AGAGATGG,0.0736
17,CCCCAGGG,-0.29
18,TAGAGAGA,-0.0355
19,GGATCACA,-0.0516
20,GCGTCGCC,-0.0716
21,CAATTGCC,0.0461
22,CACCGCCA,-0.0315
23,CTCCAACC,0.0773
24,ATGCCCAC,-0.0596
25,CGGTTCTA,0.0953

row,Sequence,PBM E-score
1,CTCGAAAA,0.00089
2,CAAAAACG,0.173
3,CAACCAAG,0.109
4,CGGGGGCA,-0.384
5,GAACGATA,-0.0645
6,ACATGAGC,-0.125
7,AAGCCCGG,-0.0996
8,AGATACCC,-0.0709
9,CGCTCATA,-0.0772
10,AGTAACAG,0.242
11,GACGAATC,0.159
12,AAACCCTA,-0.0238
13,CAGACCCC,-0.316
14,ACCTCTGG,-0.147
15,ATCATGCG,-0.0149
16,CGGAGCAC,-0.13
17,CGCAAGGC,-0.0931
18,ATCCTACA,0.0217
19,CGCGGGTC,-0.0494
20,ATTCAAAG,0.133
21,ACGGGGAG,-0.179
22,CGTAACAG,0.0429
23,CCTTAGTA,-0.0356
24,CAACGACA,0.00165
25,CAGACCTA,0.0903

row,Sequence,PBM E-score
1,AACTCCGC,-0.219
2,AAATTCAC,0.241
3,AGTTCGAG,0.0338
4,CACCGAAG,0.0209
5,ATGATCCC,0.244
6,TGGTTGAA,0.0153
7,GGCTAAAC,-0.15
8,GATAAATA,0.4
9,GGATTATA,0.244
10,GGGCGCAA,-0.163
11,AACGTCAC,-0.00251
12,TGTCATAA,0.08
13,GCGACTCC,-0.197
14,ATTCCTAA,0.201
15,CTCTGCAA,0.0809
16,CGACGTTC,-0.245
17,AAACGAAG,0.159
18,GATCAAAA,0.296
19,GTGCGCCA,-0.143
20,TGGCTAAA,-0.0621
21,GTAAAAAA,0.0961
22,AACTCTTG,0.059
23,AACACGGC,0.0031
24,AGTCTGGG,-0.178
25,ATAAGGCC,-0.143

row,Sequence,PBM E-score
1,AGACAGAT,-0.0372
2,AGATGGGA,-0.12
3,AGTCGATA,0.0843
4,AGCAATGC,0.0566
5,ACCAGTCT,-0.0569
6,CACTAATG,0.0973
7,ACTTGAAC,0.137
8,ACTCCCCC,-0.323
9,ACGTCTGG,-0.129
10,AAGTATAC,0.197
11,GTGACGCA,-0.255
12,CGTCTCTC,-0.0119
13,ACCGGTTG,-0.125
14,ACTCTTCA,0.0741
15,CATAATGG,-0.116
16,GTCGAATA,0.114
17,CCGTTACC,-0.103
18,CACAGCGA,0.179
19,GATATGAA,0.261
